We go through 31 molecules from publication PMC9911399, “Two distinct binding modes provide the RNA-binding protein RbFox with extraordinary sequence specificity”.

The chains are these.
T1: RBFOX1 RRM (Homo sapiens, UniProt Q9NWB1 109-208)
T1 sequence: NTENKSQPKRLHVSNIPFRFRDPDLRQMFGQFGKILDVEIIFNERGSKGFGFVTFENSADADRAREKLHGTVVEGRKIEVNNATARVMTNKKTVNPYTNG

B1: GCUGAAG (DNA:RNA)
RNA: GGGAGACCGGAAUUCAGAUUGUCCGCUGAAGUUAAAUCCCGUCGUAGCCACCA
DNA 1: CAATCTGAATTCCGGTCTCCC
DNA 2: TGGTGGCTACGACGGGATT
B2: UUGAUAG (DNA:RNA)
RNA: B1 RNA with G25U, C26U, U27G, G28A, A29U
DNA 1: CAATCTGAATTCCGGTCTCCC
DNA 2: TGGTGGCTACGACGGGATT
B3: CUAUAUG (DNA:RNA)
RNA: B1 RNA with G25C, C26U, U27A, G28U, A30U
DNA 1: CAATCTGAATTCCGGTCTCCC
DNA 2: TGGTGGCTACGACGGGATT
B4: GUAAGGG (DNA:RNA)
RNA: B1 RNA with C26U, U27A, G28A, A29G, A30G
DNA 1: CAATCTGAATTCCGGTCTCCC
DNA 2: TGGTGGCTACGACGGGATT
B5: CUUCCAG (DNA:RNA)
RNA: B1 RNA with G25C, C26U, G28C, A29C
DNA 1: CAATCTGAATTCCGGTCTCCC
DNA 2: TGGTGGCTACGACGGGATT
B6: UCGAGUA (DNA:RNA)
RNA: B1 RNA with G25U, U27G, G28A, A29G, A30U, G31A
DNA 1: CAATCTGAATTCCGGTCTCCC
DNA 2: TGGTGGCTACGACGGGATT
B7: AAUAACA (DNA:RNA)
RNA: B1 RNA with G25A, C26A, G28A, A30C, G31A
DNA 1: CAATCTGAATTCCGGTCTCCC
DNA 2: TGGTGGCTACGACGGGATT
B8: GAUGUUC (DNA:RNA)
RNA: B1 RNA with C26A, A29U, A30U, G31C
DNA 1: CAATCTGAATTCCGGTCTCCC
DNA 2: TGGTGGCTACGACGGGATT
B9: UGCCCCU (DNA:RNA)
RNA: GGGAGACCGGAAUUCAGAUUGUCCUGCCCCUUUAAAUCCCGUCGUAGCCACCA
DNA 1: CAATCTGAATTCCGGTCTCCC
DNA 2: TGGTGGCTACGACGGGATT
B10: ACCAGUA (DNA:RNA)
RNA: B1 RNA with G25A, U27C, G28A, A29G, A30U, G31A
DNA 1: CAATCTGAATTCCGGTCTCCC
DNA 2: TGGTGGCTACGACGGGATT
B11: AGGACAA (DNA:RNA)
RNA: B9 RNA with U25A, C27G, C28A, C30A, U31A
DNA 1: CAATCTGAATTCCGGTCTCCC
DNA 2: TGGTGGCTACGACGGGATT
B12: UUGCAUU (DNA:RNA)
RNA: B9 RNA with G26U, C27G, C29A, C30U
DNA 1: CAATCTGAATTCCGGTCTCCC
DNA 2: TGGTGGCTACGACGGGATT
B13: UCUACUU (DNA:RNA)
RNA: B9 RNA with G26C, C27U, C28A, C30U
DNA 1: CAATCTGAATTCCGGTCTCCC
DNA 2: TGGTGGCTACGACGGGATT
B14: GGCGGCC (DNA:RNA)
RNA: B9 RNA with U25G, C28G, C29G, U31C
DNA 1: CAATCTGAATTCCGGTCTCCC
DNA 2: TGGTGGCTACGACGGGATT
B15: CGCGCGA (DNA:RNA)
RNA: B9 RNA with U25C, C28G, C30G, U31A
DNA 1: CAATCTGAATTCCGGTCTCCC
DNA 2: TGGTGGCTACGACGGGATT
B16: AAAACCC (DNA:RNA)
RNA: B9 RNA with U25A, G26A, C27A, C28A, U31C
DNA 1: CAATCTGAATTCCGGTCTCCC
DNA 2: TGGTGGCTACGACGGGATT
B17: UCCUGCC (DNA:RNA)
RNA: B9 RNA with G26C, C28U, C29G, U31C
DNA 1: CAATCTGAATTCCGGTCTCCC
DNA 2: TGGTGGCTACGACGGGATT
B18: AGUCCCG (DNA:RNA)
RNA: B9 RNA with U25A, C27U, U31G
DNA 1: CAATCTGAATTCCGGTCTCCC
DNA 2: TGGTGGCTACGACGGGATT
B19: GCAACAU (DNA:RNA)
RNA: B1 RNA with U27A, G28A, A29C, G31U
DNA 1: CAATCTGAATTCCGGTCTCCC
DNA 2: TGGTGGCTACGACGGGATT
B20: CAUAGUA (DNA:RNA)
RNA: B1 RNA with G25C, C26A, G28A, A29G, A30U, G31A
DNA 1: CAATCTGAATTCCGGTCTCCC
DNA 2: TGGTGGCTACGACGGGATT
B21: CCAACGC (DNA:RNA)
RNA: B1 RNA with G25C, U27A, G28A, A29C, A30G, G31C
DNA 1: CAATCTGAATTCCGGTCTCCC
DNA 2: TGGTGGCTACGACGGGATT
B22: UGACACU (DNA:RNA)
RNA: B9 RNA with C27A, C29A
DNA 1: CAATCTGAATTCCGGTCTCCC
DNA 2: TGGTGGCTACGACGGGATT
B23: GCUCACC (DNA:RNA)
RNA: B1 RNA with G28C, A30C, G31C
DNA 1: CAATCTGAATTCCGGTCTCCC
DNA 2: TGGTGGCTACGACGGGATT
B24: UUUACGA (DNA:RNA)
RNA: B9 RNA with G26U, C27U, C28A, C30G, U31A
DNA 1: CAATCTGAATTCCGGTCTCCC
DNA 2: TGGTGGCTACGACGGGATT
B25: AUGCCCG (DNA:RNA)
RNA: B9 RNA with U25A, G26U, C27G, U31G
DNA 1: CAATCTGAATTCCGGTCTCCC
DNA 2: TGGTGGCTACGACGGGATT
B26: AUUUCCG (DNA:RNA)
RNA: B1 RNA with G25A, C26U, G28U, A29C, A30C
DNA 1: CAATCTGAATTCCGGTCTCCC
DNA 2: TGGTGGCTACGACGGGATT
B27: CCACAAA (DNA:RNA)
RNA: B1 RNA with G25C, U27A, G28C, G31A
DNA 1: CAATCTGAATTCCGGTCTCCC
DNA 2: TGGTGGCTACGACGGGATT
B28: CUCCUAC (DNA:RNA)
RNA: B9 RNA with U25C, G26U, C29U, C30A, U31C
DNA 1: CAATCTGAATTCCGGTCTCCC
DNA 2: TGGTGGCTACGACGGGATT
B29: UCGUAAA (DNA:RNA)
RNA: B1 RNA with G25U, U27G, G28U, G31A
DNA 1: CAATCTGAATTCCGGTCTCCC
DNA 2: TGGTGGCTACGACGGGATT
B30: ACUCAUU (DNA:RNA)
RNA: B1 RNA with G25A, G28C, A30U, G31U
DNA 1: CAATCTGAATTCCGGTCTCCC
DNA 2: TGGTGGCTACGACGGGATT
B31: GAUAGAG (DNA:RNA)
RNA: B1 RNA with C26A, G28A, A29G
DNA 1: CAATCTGAATTCCGGTCTCCC
DNA 2: TGGTGGCTACGACGGGATT

Substitutions are numbered along the chain they refer to; changes in the protein carry UniProt numbers. This is one part of the list.

This experiment addresses T1, RBFOX1 RRM. The experiment in a line: EMSA; HiTS-Eq, 1 nM pool, 10 min; buffer printed only for the single-RNA assays: 10 mM Tris pH 7.5, 150 mM NaCl, 3.4 mM EDTA, 0.001% NP-40, 30 C. The following applies: tags: His6 N-terminal (pET28a); label: 5' 32P. Put shortly:
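A pool of RNA with 7 randomized nucleotides, 5′-radiolabelled and with DNA-annealed flanks, was equilibrated at 1 nM for 10 min in 50 µL with purified RbFox RRM, wild type or mutant, across increasing protein concentrations. Free RNA was separated by 8% native PAGE, excised, reverse-transcribed, barcoded by PCR and sequenced. Relative association constants were obtained from read-count changes of each RNA species versus the control reaction and normalised to the cognate motif.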
(In general: A gel shift assay detects complexes by their altered migration in electrophoresis.)
Consider B1, for which the binding signal is 0.0207 KA relative to UGCAUGU.

As for B2, the binding signal was 0.0223 KA relative to UGCAUGU.

Regarding B3, the binding signal is 0.0105 KA relative to UGCAUGU.

In the case of B4, the binding signal was 0.00398 KA relative to UGCAUGU.

For B5, the binding signal is 0.00447 KA relative to UGCAUGU.

In the case of B6, the binding signal is 0.0131 KA relative to UGCAUGU.

Regarding B7, the binding signal was 0.00107 KA relative to UGCAUGU.

Regarding B8, the binding signal is 0.0179 KA relative to UGCAUGU.

In the case of B9, the binding signal is 0.0119 KA relative to UGCAUGU.

Regarding B10, the binding signal is 0.00176 KA relative to UGCAUGU.

With B11, the binding signal was 0.0149 KA relative to UGCAUGU.

On to B12, for which the binding signal was 0.0186 KA relative to UGCAUGU.

In the case of B13, the binding signal was 0.00231 KA relative to UGCAUGU.

On to B14, for which the binding signal was 0.0183 KA relative to UGCAUGU.

B15: the binding signal is 0.0141 KA relative to UGCAUGU.

Take B16: the binding signal was 0.000781 KA relative to UGCAUGU.

Consider B17, for which the binding signal is 0.0121 KA relative to UGCAUGU.

As to B18, the binding signal was 0.00745 KA relative to UGCAUGU.

In the case of B19, the binding signal is 0.00634 KA relative to UGCAUGU.

As to B20, the binding signal is 0.00289 KA relative to UGCAUGU.

With B21, the binding signal was 0.00224 KA relative to UGCAUGU.

Regarding B22, the binding signal was 0.0103 KA relative to UGCAUGU.

B23: the binding signal was 0.00471 KA relative to UGCAUGU.

With B24, the binding signal was 0.011 KA relative to UGCAUGU.

On to B25, for which the binding signal was 0.0102 KA relative to UGCAUGU.

B26: the binding signal was 0.00787 KA relative to UGCAUGU.

For the molecule B27, the binding signal is 0.00309 KA relative to UGCAUGU.

Turning to B28, the binding signal was 0.00447 KA relative to UGCAUGU.

For the molecule B29, the binding signal is 0.00527 KA relative to UGCAUGU.

Take B30: the binding signal is 0.00186 KA relative to UGCAUGU.

For B31, the binding signal was 0.0144 KA relative to UGCAUGU.
